Laboratory results: PubChem BioAssay (Tox21)
“And” between values parts separate entries of the source, which are not always exact repeats. Equal entries are not always repeated. Inconclusive results, whose numbers are uncertain, are shown with a selection of clear calls. For some of these results: Where the call is inconclusive, the potency comes from a doubtful curve fit. The source made the active and inactive calls. Unless noted, calls follow the shape of the dose curve; as a rule, active = well fitted curve in the direction sought with a large enough effect in the repeat runs; inconclusive = weak or mixed curves; inactive = no such curve, though single readings can be large; an effect the other way counts as inactive or inconclusive.

Columns and labels:
[1] = qHTS assay for small molecule agonists of the p53 signaling pathway (AID 651631; calls by dose curve; also: nearly all actives have a fitted effect of over 15% in size; also: potency is read from the fitted curve at half-maximal effect); conditions: HCT-116 p53RE-bla reporter, beta-lactamase FRET ratio, 16 h; activation: at 73.3 µM (top of the series) unless noted
In short: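 Quantitative high-throughput format: 4,000 p53RE-bla HCT-116 cells/well, 5 h pre-incubation, 16 h compound exposure at 37 °C, 2 h room-temperature substrate step, fluorescence intensity measured.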

[2] = qHTS assay for small molecule disruptors of the mitochondrial membrane potential (AID 720635); conditions: HepG2 mitochondrial membrane potential, Mito-MPS dye ratio; ratio activity, negative = MMP loss: at 83.2 µM (top of the series) unless noted; also: potency is read from the fitted curve at half-maximal effect
In short: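 Mitochondrial membrane potential tracked with Mito-MPS dye, red aggregates (ex 540/em 590 nm) against green monomers (ex 490/em 535 nm). Compound treatment 1 hr at 37C, dye 30 min in HepG2.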

[3] = qHTS assay to identify small molecule antagonists of the thyroid receptor (TR) signaling pathway - cell viability counter screen (AID 743064); conditions: GH3.TRE-Luc viability, CellTiter-Fluor, 24 h; activity change, negative = cytotoxic: at 70.3 µM (top of the series) unless noted; also: % is scaled to controls: 0 for no effect and ±100 for the full control effect; nearly all actives have a fitted effect of over 50% in size
In short: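 Compounds were tested on GH3.TRE-Luc cells in the presence of T3 at 1 nM final. Following 23.5 h at 37 °C, cell viability was quantified by CellTiter-Fluor.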

[4] = qHTS assay to identify small molecule antagonists of the thyroid receptor (TR) signaling pathway (AID 743065); also: nearly all actives have a fitted effect of over 55% in size; also: potency is read from the fitted curve at half-maximal effect
In short: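 Antagonism measured as loss of luciferase signal in GH3 cells stably carrying a TRE-luciferase reporter, co-treated with compound and T3 (1 nM final) for 23.5 h at 37 C. Viability was read in the same well by CellTiter-Fluor.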

[5] = molecular target: Estrogen receptor (Homo sapiens) (UniProt P03372); assay: qHTS assay to identify small molecule agonists of the estrogen receptor alpha (ER-alpha) signaling pathway using the BG1 cell line (AID 743079); conditions: BG1Luc4E2 cells, ERE-luciferase agonist, 22 h; activation: at 70.3 µM (top of the series) unless noted; also: potency is read from the fitted curve at half-maximal effect; nearly all actives have a fitted effect of over 20% in size
[6] = molecular target: Nuclear receptor subfamily 1 group I member 2 (Homo sapiens) (UniProt O75469); assay: CYP3A4 induction through human pregnane X receptor (PXR) by small molecules, qHTS assay (AID 1346984); conditions: DPX-2 HepG2 PXR, CYP3A4-luciferin luminescence, 24 h; activation: at 46.1 µM (top of the series) unless noted; also: % is scaled to controls: 0 for no effect and ±100 for the full control effect; nearly all actives have a fitted effect of over 40% in size
In short: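 DPX-2 HepG2 cells carrying a PXR response element and CYP3A4-promoter luciferase construct, treated with compounds 24 hr at 37C. Then P450-Glo CYP3A4 Luciferin-IPA substrate (3uM final) for 3 hr at 37C, One-Glo added, luminescence read.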

[7] = molecular target: Glucocorticoid receptor (Homo sapiens) (UniProt P04150); assay: qHTS assay to identify small molecule antagonists of the glucocorticoid receptor (GR) signaling pathway (AID 720692; active = well fitted inhibition curve with a large enough effect in the signal ratio in the repeat runs, not every such curve was filed as active; inconclusive = weak or mixed curves, or effect the other way; inactive = no such curve, though single readings can be large or run the other way; the % refers to the signal ratio; also: % is scaled to controls: 0 for no effect and ±100 for the full control effect); conditions: GR-bla HeLa, beta-lactamase FRET ratio, dexamethasone-stimulated, 18 h; activity change, negative = inhibition: at 58.5 µM (top of the series) unless noted
In short: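 GR-bla HeLa cells carrying a GRE-driven beta-lactamase reporter received compound after 4 h plating, then dexamethasone (5 nM final). After 18 h at 37C, the FRET substrate was loaded for 2 h at room temperature and fluorescence read.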

[8] = qHTS assay for identifying genotoxic compounds that show differential cytotoxicity against isogenic chicken DT40 cell lines with known DNA damage response pathways - wild type cell line (AID 743012); conditions: DT40 wild type chicken cells viability, CellTiter-Glo, 40 h; activity change, negative = cytotoxicity: at 68.4 µM (top of the series) unless noted; also: potency is read from the fitted curve at half-maximal effect; nearly all actives have a fitted effect of over 60% in size
In short: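 Wild-type DT40 cells (300/well) exposed to compounds for 40 hours at 37 C/5% CO2. Viability read by CellTiter-Glo luminescence after 30 min at room temperature.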

[9] = qHTS assay for identifying genotoxic compounds that show differential cytotoxicity against isogenic chicken DT40 cell lines with known DNA damage response pathways - Rev3 mutant cell line (AID 743014); conditions: chicken DT40 Rev3-/- viability, CellTiter-Glo, 40 h; activity, negative = cytotoxicity: at 68.4 µM (top of the series) unless noted; also: potency is read from the fitted curve at half-maximal effect; nearly all actives have a fitted effect of over 55% in size
[10] = qHTS assay for identifying genotoxic compounds that show differential cytotoxicity against isogenic chicken DT40 cell lines with known DNA damage response pathways - Rad54/Ku70 mutant cell line (AID 743015); conditions: DT40 Rad54/Ku70 mutant viability, CellTiter-Glo, 40 h; activity change, negative = cytotoxicity: at 66.8 µM (top of the series) unless noted; also: potency is read from the fitted curve at half-maximal effect; nearly all actives have a fitted effect of over 60% in size
[11] = molecular target: Androgen receptor (Homo sapiens) (UniProt P10275); assay: qHTS assay to identify small molecule antagonists of the androgen receptor (AR) signaling pathway (AID 743035; active = well fitted inhibition curve with a large enough effect in the signal ratio in the repeat runs, not every such curve was filed as active; inconclusive = weak or mixed curves, or effect the other way; inactive = no such curve, though single readings can be large or run the other way; the % refers to the signal ratio; also: % is scaled to controls: 0 for no effect and ±100 for the full control effect); conditions: HEK293 AR-UAS-bla, R1881-stimulated, beta-lactamase FRET, 16 h; activity change, negative = inhibition: at 58.5 µM (top of the series) unless noted
In short: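 HEK293 cells stably carrying UAS-beta-lactamase reporter, 2,000/well, given compounds plus R1881 agonist and incubated 16 h at 37C. LiveBLAzer B/G FRET substrate then added for 2 h at room temperature before fluorescence reading.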

[12] = molecular target: Androgen receptor (Homo sapiens) (UniProt P10275); assay: qHTS assay to identify small molecule agonists of the androgen receptor (AR) signaling pathway (AID 743036; active = well fitted activation curve with a large enough effect in the signal ratio in the repeat runs, with a control signal flat, not every such curve was filed as active; inconclusive = weak or mixed curves, or effect the other way; inactive = no such curve, though single readings can be large or run the other way; the % refers to the signal ratio; also: % is scaled to controls: 0 for no effect and ±100 for the full control effect); conditions: HEK293 AR-UAS-bla GripTite, beta-lactamase FRET ratio, 16 h; activation: at 62.4 µM (top of the series) unless noted
In short: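 Beta-lactamase under UAS control, stably integrated in HEK293 GripTite cells, reports receptor activation. After 16 h compound treatment, cells received FRET substrate for 2 h at room temperature before fluorescence reading.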

[13] = qHTS assay to identify aromatase inhibitors - cell viability counter screen (AID 743084); conditions: MCF-7 aro ERE viability, CellTiter-Fluor, 24 h; activity change, negative = cytotoxicity: at 70.3 µM (top of the series) unless noted;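 also: cells stimulated with testosterone during compound exposure; % is scaled to controls: 0 for no effect and ±100 for the full control effect; nearly all actives have a fitted effect of over 55% in size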
[14] = molecular target: Aryl hydrocarbon receptor (Homo sapiens) (UniProt P35869); assay: qHTS assay to identify small molecule that activate the aryl hydrocarbon receptor (AhR) signaling pathway (AID 743085); also: potency is read from the fitted curve at half-maximal effect; nearly all actives have a fitted effect of over 15% in size
In short: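 24 h compound exposure, 37C, HepG2-derived HG2L7.5c1 cells with DRE-responsive luciferase. Readouts: fluorescence viability, then luminescence at room temperature after 30 min.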

[15] = qHTS assay to identify small molecule antagonists of the glucocorticoid receptor (GR) signaling pathway - cell viability counter screen (AID 720693); conditions: GR-bla HeLa viability, CellTiter-Glo luminescence, 18 h, with 5 nM dexamethasone present; viability change, negative = cytotoxic: at 58.5 µM (top of the series); also: % is scaled to controls: 0 for no effect and ±100 for the full control effect; nearly all actives have a fitted effect of over 55% in size
[16] = qHTS assay for small molecules that induce genotoxicity in human embryonic kidney cells expressing luciferase-tagged ATAD5 - cell viability (AID 651634; calls by dose curve; also: % is scaled to controls: 0 for no effect and ±100 for the full control effect; nearly all actives have a fitted effect of over 25% in size)
In short: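 HEK293T cells carrying luciferase-tagged ATAD5, 2,000 cells/well, exposed to compound for 15.5 hr at 37C. Viability read as live-cell protease activity by CellTiter-Fluor fluorescence after 30 min at 37C.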

[17] = tested on: thyroid hormone receptor (rat, GH3 cells); assay: qHTS assay to identify small molecule agonists of the thyroid receptor (TR) signaling pathway (AID 743066; calls by dose curve; also: % is scaled to controls: 0 for no effect and ±100 for the full control effect); conditions: GH3.TRE-Luc cells, TR agonist luciferase, 24 h; activation: at 83.9 µM (top of the series) unless noted
[18] = qHTS assay to identify small molecule antagonists of the estrogen receptor alpha (ER-alpha) signaling pathway - cell viability counter screen (AID 743074; calls by dose curve;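 also: HEK293 cells carrying ER-alpha-UAS-bla reporter stimulated with 17beta-estradiol; % is scaled to controls: 0 for no effect and ±100 for the full control effect; nearly all actives have a fitted effect of over 45% in size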)
[19] = molecular target: Peroxisome proliferator-activated receptor gamma (Homo sapiens) (UniProt P37231); assay: qHTS assay to identify small molecule agonists of the peroxisome proliferator-activated receptor gamma (PPARg) signaling pathway (AID 743094; active = well fitted activation curve with a large enough effect in the signal ratio in the repeat runs, not every such curve was filed as active; inconclusive = weak or mixed curves, or effect the other way; inactive = no such curve, though single readings can be large or run the other way; the % refers to the signal ratio; also: % is scaled to controls: 0 for no effect and ±100 for the full control effect); conditions: HEK293H PPARg-UAS-bla, beta-lactamase FRET ratio, 17 h; activation: at 57 µM (top of the series) unless noted
In short: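 GeneBLAzer PPARg UAS-bla HEK293H cells were plated, rested 5 h, then exposed to compounds for 17 h at 37C. Beta-lactamase activity was read by LiveBLAzer B/G FRET substrate fluorescence after 1 h at room temperature.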
Tags tell the direction and shape of the fitted curve or compound fluorescence and quenching.

UniProt P10275, sequence (P10275 whole entry, looked up): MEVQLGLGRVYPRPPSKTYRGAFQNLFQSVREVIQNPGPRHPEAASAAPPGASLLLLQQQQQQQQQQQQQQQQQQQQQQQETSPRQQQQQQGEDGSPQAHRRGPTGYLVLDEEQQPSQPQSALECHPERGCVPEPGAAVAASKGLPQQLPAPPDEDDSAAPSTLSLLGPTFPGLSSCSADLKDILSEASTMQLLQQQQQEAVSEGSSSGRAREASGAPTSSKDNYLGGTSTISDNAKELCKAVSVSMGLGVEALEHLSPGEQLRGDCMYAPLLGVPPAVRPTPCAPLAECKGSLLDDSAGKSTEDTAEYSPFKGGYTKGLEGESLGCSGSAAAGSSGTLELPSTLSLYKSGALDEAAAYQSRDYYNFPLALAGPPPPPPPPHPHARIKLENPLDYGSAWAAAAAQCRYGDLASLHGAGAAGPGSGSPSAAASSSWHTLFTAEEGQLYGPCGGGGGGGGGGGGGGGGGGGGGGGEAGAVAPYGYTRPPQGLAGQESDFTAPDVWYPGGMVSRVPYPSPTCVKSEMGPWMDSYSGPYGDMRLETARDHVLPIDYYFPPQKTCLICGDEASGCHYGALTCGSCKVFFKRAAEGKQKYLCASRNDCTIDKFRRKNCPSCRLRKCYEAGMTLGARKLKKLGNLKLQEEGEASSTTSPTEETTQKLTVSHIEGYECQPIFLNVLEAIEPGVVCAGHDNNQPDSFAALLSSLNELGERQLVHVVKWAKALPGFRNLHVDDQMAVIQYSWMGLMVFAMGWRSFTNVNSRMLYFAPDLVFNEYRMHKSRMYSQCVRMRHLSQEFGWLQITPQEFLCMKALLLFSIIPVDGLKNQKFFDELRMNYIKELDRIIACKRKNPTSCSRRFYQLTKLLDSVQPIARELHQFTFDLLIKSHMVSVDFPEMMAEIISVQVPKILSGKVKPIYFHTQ
UniProt P35869, sequence (P35869 whole entry, looked up): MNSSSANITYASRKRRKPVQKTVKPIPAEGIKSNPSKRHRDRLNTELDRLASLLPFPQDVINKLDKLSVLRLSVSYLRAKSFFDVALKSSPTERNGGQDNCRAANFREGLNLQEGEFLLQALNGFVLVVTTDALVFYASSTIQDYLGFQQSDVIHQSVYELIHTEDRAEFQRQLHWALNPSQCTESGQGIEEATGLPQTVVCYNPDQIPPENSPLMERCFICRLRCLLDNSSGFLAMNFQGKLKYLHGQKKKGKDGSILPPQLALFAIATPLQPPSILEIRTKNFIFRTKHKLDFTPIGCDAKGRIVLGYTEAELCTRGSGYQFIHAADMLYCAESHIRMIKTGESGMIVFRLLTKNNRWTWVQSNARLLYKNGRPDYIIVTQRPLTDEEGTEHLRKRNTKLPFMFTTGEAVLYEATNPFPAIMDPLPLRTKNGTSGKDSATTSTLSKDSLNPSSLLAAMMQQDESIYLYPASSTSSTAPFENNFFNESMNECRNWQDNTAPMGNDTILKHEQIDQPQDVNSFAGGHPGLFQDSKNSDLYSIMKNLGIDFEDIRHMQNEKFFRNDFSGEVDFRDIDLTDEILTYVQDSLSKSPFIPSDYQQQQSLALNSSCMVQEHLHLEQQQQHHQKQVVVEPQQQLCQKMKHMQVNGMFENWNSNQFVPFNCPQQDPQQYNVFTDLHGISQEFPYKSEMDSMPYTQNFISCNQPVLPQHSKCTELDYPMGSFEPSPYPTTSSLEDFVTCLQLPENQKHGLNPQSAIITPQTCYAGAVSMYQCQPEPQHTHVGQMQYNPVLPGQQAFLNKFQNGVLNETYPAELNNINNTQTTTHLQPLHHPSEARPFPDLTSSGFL
UniProt P03372, sequence (P03372 whole entry, looked up): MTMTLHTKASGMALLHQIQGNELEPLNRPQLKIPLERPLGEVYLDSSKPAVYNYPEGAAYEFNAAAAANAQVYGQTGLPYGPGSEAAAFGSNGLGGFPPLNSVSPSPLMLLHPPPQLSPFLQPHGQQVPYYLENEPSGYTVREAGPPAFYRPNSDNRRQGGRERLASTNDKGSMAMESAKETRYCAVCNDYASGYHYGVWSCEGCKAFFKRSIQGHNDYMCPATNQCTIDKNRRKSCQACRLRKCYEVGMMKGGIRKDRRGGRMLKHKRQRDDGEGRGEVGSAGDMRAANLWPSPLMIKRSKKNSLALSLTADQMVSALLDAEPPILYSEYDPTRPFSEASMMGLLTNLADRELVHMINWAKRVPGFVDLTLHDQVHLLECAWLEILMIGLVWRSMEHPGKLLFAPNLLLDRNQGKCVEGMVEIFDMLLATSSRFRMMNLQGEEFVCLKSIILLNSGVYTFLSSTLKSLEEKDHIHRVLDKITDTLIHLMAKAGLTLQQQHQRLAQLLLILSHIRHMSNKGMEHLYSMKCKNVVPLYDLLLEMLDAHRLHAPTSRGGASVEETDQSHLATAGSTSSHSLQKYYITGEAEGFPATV
UniProt P37231, sequence (P37231 whole entry, looked up): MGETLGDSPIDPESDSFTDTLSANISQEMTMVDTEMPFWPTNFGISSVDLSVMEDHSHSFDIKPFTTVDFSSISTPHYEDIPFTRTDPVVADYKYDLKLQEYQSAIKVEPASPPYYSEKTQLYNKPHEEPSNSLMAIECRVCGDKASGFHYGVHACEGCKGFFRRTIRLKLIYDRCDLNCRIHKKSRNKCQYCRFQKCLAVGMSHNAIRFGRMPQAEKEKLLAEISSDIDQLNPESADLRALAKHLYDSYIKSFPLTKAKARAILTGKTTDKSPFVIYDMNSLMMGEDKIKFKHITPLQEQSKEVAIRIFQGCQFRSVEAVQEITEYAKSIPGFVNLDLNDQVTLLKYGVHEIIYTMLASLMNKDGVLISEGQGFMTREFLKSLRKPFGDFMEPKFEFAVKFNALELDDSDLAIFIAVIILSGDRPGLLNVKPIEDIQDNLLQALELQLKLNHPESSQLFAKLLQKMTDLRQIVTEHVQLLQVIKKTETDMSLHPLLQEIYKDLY
UniProt P04150, sequence (P04150 whole entry, looked up): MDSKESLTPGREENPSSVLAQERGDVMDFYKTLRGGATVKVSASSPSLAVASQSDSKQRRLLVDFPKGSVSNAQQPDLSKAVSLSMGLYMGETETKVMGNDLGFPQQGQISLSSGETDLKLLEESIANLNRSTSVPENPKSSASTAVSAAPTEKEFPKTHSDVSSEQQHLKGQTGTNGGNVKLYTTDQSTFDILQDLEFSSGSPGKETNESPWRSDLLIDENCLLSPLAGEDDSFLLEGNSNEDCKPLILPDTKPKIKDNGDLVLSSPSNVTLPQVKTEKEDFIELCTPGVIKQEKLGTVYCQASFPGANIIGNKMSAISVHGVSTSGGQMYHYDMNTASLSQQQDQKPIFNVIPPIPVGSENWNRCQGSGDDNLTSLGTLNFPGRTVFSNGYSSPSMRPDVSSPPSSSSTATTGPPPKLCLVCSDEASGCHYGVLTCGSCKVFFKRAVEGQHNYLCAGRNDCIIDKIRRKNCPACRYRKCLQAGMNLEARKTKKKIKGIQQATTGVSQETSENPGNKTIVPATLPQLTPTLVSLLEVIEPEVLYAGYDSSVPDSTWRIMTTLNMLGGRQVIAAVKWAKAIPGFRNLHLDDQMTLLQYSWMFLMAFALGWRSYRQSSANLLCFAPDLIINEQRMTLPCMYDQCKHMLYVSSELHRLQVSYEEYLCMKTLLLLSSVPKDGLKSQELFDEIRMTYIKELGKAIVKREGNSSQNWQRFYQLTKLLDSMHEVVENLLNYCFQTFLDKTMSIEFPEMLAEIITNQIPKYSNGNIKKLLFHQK

Which results are given for `C=CCSSSCC=C`?
Potency [1]: active: 9.44 µM; ratio activity, negative = MMP loss [2]: inconclusive: -12.6%; Potency [3]: inactive; Potency [4]: inactive; Potency [5]: active: 29.8 µM; Potency [6]: inactive

With `COC(=O)[C@H]1[C@H]2C[C@@H]3c4[nH]c5cc(OC)ccc5c4CCN3C[C@H]2C[C@@H](OC(=O)/C=C/c2cc(OC)c(OC)c(OC)c2)[C@@H]1OC` as the compound, how does the activity change, negative = inhibition [7] read?
Its activity change, negative = inhibition is inconclusive: -14.6% [at 27 µM].

What about the Potency [8] of the same compound?
Its Potency is inconclusive: 12.7 µM [cytotoxic, single point].

What about the Potency [9] of the same compound?
Its Potency is inconclusive: 14.3 µM [cytotoxic].

And the Potency [10]?
The Potency was inconclusive: 14.3 µM [cytotoxic, single point].

And the activity change, negative = inhibition [11]?
The activity change, negative = inhibition was inconclusive: -41.1% [at 27 µM].

And the activation [12]?
The activation was inconclusive: 2.57% [at 29.2 µM].

And the Potency [4]?
Its Potency is inconclusive: 12.7 µM [inhibitor, single point].

What about the Potency [13] of the same compound?
The Potency was “inactive”.

And the Potency [14]?
Its Potency is inconclusive: 12.7 µM [activator, partial curve].

And the activation [6]?
The activation was inconclusive: -3.94% [activator] [at 20.6 µM].

With `CN=C(N)NCCC[C@H](N)C(=O)O` as the compound, how does the Potency [1] read?
Its Potency is “inactive”.

And the Potency [15]?
Its Potency is “inactive”.

And the Potency [8]?
The Potency was inconclusive: 4.22 µM [rising, partial curve, poor fit] and inconclusive: 26.6 µM [rising, partial curve, poor fit].

What about the Potency [6] of the same compound?
Its Potency is “inactive”.

What does the source list for `CC(C)(C)NCC(O)CSc1nc(-c2ccc(C(N)=O)s2)cs1` (centres undefined)?
activation [1]: inconclusive: 6.99%; Potency [16]: inactive; Potency [2]: active: 13.3 µM; Potency [8]: inconclusive: 23.7 µM [cytotoxic, partial curve]; Potency [10]: inconclusive: 33.5 µM [cytotoxic, single point]; Potency [17]: inactive; Potency [14]: inconclusive: 23.7 µM [activator, partial curve]; Potency [6]: inactive

For `CCc1ncnc2cc(OC)c(OC)cc12`, which Potency [2] is on record?
Its Potency is “inactive”.

And the activation [12]?
The activation was inconclusive: 8.05%.

And the Potency [17]?
The Potency was “inactive”.

And the Potency [18]?
Its Potency is “inactive”.

And the activation [19]?
The activation was inconclusive: 5.68%.

What about the Potency [6] of the same compound?
Its Potency is “inactive”.
